According to patent publication US20250368738A1 (PHILOGEN S P A, published 2025):

Target: T1, human CD28-ECD (extracellular domain) recombinant fragment containing a C-terminal Avi tag, His6 tag and Fc … (human, site specifically biotinylated using BirA (Avi tag) in the ELISA of Example 2.1)
T1 construct: also called CD28-Fc; CD28-Fc fusion protein
Assay: titration ELISA, biotinylated CD28-ECD fusion protein on streptavidin wells, anti-myc detection

EC50: ~31 nM
B1: AE2P antibody in single chain Fv (scFv) format (scFv)
scFv: [omitted - about 100 residues]RYIAFDYWGQGTLVTVSSGGGGSGGGGSGGGGDIQMTQSPSSLSASVGDRVTITCRASQSISSYLNWYQQKPGKAPKLLIYAASSLQSGVPSRFSGSGSGTDFTLTISSLQPEDFATYYCQQGGMPPDTFGQGTKVEIK
notes: The tested scFv was detected through a myc tag; also called AE2P scFv; scFv (AE2P)
